These results are taken from the supplement of paper PMC11417369.

Some of the results follow.

This test relates to PfHDP1 homeodomain (GST-tagged). Put plainly: gcPBM binding intensity (ln(normalized median fluorescence intensity)); higher = stronger DNA binding. Put shortly:
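Binding intensity is the highest Masliner-normalised natural-log median intensity over replicate spots in either probe orientation. To obtain it, GST-tagged P. falciparum DNA-binding domains made in E. coli were incubated for 1 h on an Agilent 4 × 180k array of primer-extended double-stranded 36-bp intergenic genomic probes plus negative controls. Detection used Alexa488 anti-GST antibody with scanning at 488 nm.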
For the sequence “AGATAAAAAAAGTACACACACACATATATATATATA [CACACA_site3072]”, the “gcPBM binding intensity (ln)” value came out at 9.22.

For “AAGCTTCCTTAATATACACACATATCTGAGTATATT [CACACA_site5939]”, the “gcPBM binding intensity (ln)” value was 6.74. The same measure for “CAAAATATAGATGACACACACAAAAAAAGTATATTA [CACACA_site6848]”: 6.59; for “CATTTACCCTTATTAACACACAAAATATAATACGCT [CACACA_site2565]”: 6.71; for “TATATAATATATATTTTATATTTGTAATAATTTTTT [GTGCAC_negctrl_site497]”: 6.3.

Consider “TACATATGAAAATACACACATACATACATATATATA [CACACA_site1673]”, for which the “gcPBM binding intensity (ln)” value was determined as 6.76.

With “TAACTCCACAAATAATGTACATATATCACTATATTT [XGTACX_site4911]”, the “gcPBM binding intensity (ln)” value was 6.56. The same measure for “AATGTATAATTATAATGTACAAATAATATATAATAT [XGTACX_site5407]”: 6.64; for “ATTTACATTCACTTATGTACTTATATAATTTTATTT [XGTACX_site8150]”: 6.5.

For “ACGTAAAATTATTATTGTACATGTAAATAATTTGGA [XGTACX_site8154]”, the “gcPBM binding intensity (ln)” value amounted to 6.45. With “TATATTAAACATATATGTACATATTTTTTCTGAACA [XGTACX_site5390]” the figure was 6.47; with “AATATTTTCTGTAATACTTCTTTTCAATTTATTTCG [CACACA_negctrl_site1390]”, 6.46; with “ACCAAATCATATATAGCACACAAATTCTTTATTATT [CACACA_site8911]”, 7.16. In the case of “AATATCAATGATGTTACATGCAAGAGAATCCACAAA [TGCATGCA_site678]”, the “gcPBM binding intensity (ln)” value came to 6.64. The same measure for “TATTGTTTTTTTGATTTTTTTTTTTTTTTTAATGAA [CACACA_negctrl_site824]”: 6.15; for “AATAAATTTAAACACACACACACATATATATATATA [CACACA_site4621]”: 9.29. Turning to “TATATACATAAACACACACACACATATATATATATA [CACACA_site8707]”, the “gcPBM binding intensity (ln)” value came to 9.3. The same measure for “ATATTAAACAAACACACACACATATATATATATATA [CACACA_site3383]”: 9.29; for “AATTAATGGTTAAAGGTGCACAATACATATATTACA [GTGCAC_site9943]”: 9.7; for “TGCATATACTCAAGCACACATATATATATATATATA [CACACA_site4733]”: 9.45. With “TTTTTTTTTTTTTTTTTTTTTTTTTTTTTTTGGGGG [CACACA_negctrl_site1570]” the figure was 6.49. With “ATATATTGAAAATATAGTACATAATAAATGTTCTTT [XGTACX_site8474]” the figure was 5.99; with “ATAAAATAAGACAAAAAAAAAATATATATATATATA [TGCATGCA_negctrl_site314]”, 9.18. Turning to “CCTTGTCTTTTTTTTTTTTTTTTTTCTTCTTATTTT [GTGCAC_negctrl_site523]”, the “gcPBM binding intensity (ln)” value worked out at 6.24. With “AAAAAAAAAAAAAAATGTACATATATATATATATTA [XGTACX_site7330]” the figure was 6.35; with “AGTAGATATAATATATGTACATATATATATATATAT [XGTACX_site7186]”, 9.32.

Consider “AAAGTAAAAGGGTTTGGTACACATATAATATATTAG [XGTACX_site6036]”, for which the “gcPBM binding intensity (ln)” value came to 6.71. The same measure for “ATAACTTTTATTTGTACACACATACATCTATATTAT [CACACA_site6595]”: 7.34; for “AGTAAAAGAAAGCACACACACATGTATTTATGTATG [CACACA_site5998]”: 6.5; for “CATTTATATAAAGAATGTACACACAGAAATGCACAC [XGTACX_site4718]”: 9.03. The same measure for “AATATAAATATAAATATAAATAAATAAATAAATAAA [CACACA_negctrl_site291]”: 6.43; for “GTAATTTTTTTCTATACACACATATATATAATATAT [CACACA_site2655]”: 7.08. With “AATGTAGTTTATCGATGTACACAAAATAAAGAGAAG [XGTACX_site6956]” the figure was 7.67; with “CCGTACAATTTTGTCACACATAAAATACTTATGTAT [CACACA_site4871]”, 6.38; with “TAGTATTTATATGATTAACACACATATGGGTATTAA [CACACA_site8363]”, 6.3. Take ATATACACCTGAGAGGTGCATATATATAAAATTTAC: the “gcPBM binding intensity (ln)” value was 9.05. Regarding “ATAATGTTCACATAGGTGCACTAATATAATTATCCA [GTGCAC_site9981]”, the “gcPBM binding intensity (ln)” value is 9.74.

On to “CATAATAGTTATAAAATACACACCAGGCATGATAAA [CACACA_site329]”, for which the “gcPBM binding intensity (ln)” value stood at 6.19. The same measure for “AAAAAAAAAAAAAAAAGTACTCAATAATAATTACAT [XGTACX_site670]”: 6.63. With “TTTTTTTTTTCTACAAGTACATATTTTCATTTAACA [XGTACX_site6621]” the figure was 6.37. With “AAATTAAAAAAAAATAAATAAAAAAAAAAAAAAAAT [CACACA_negctrl_site1611]” the figure was 6.28.

For “AAAAAAAAAAAAAAATGTACATATATATATTATAAA [XGTACX_site518]”, the “gcPBM binding intensity (ln)” value is 6.33.

In the case of “ATAAATACATATAAAAGTACACACACACACATATAT [XGTACX_site1744]”, the “gcPBM binding intensity (ln)” value is 7.05. With “ATGTGCAAATATTAAAGTACTAAATTTTATTATTTT [XGTACX_site7306]” the figure was 11.3; with “TGTATATGTGAAGCAAGGGATGCGGCAGACATAACA [CACACA_negctrl_site1339]”, 6.51.
